SMILES strings stand for the structures. Among all 150,000 compounds or so, about 540 (0.36%) showed an effect of 50% or more. Some of the results follow.

In this assay the test system is Plasmodium falciparum. Kind of assay: Primary screen in NF54 nanoGlo assay, in single point, at 2uM, 72h; a lower Z score goes with more inhibition. The conditions noted are these: timepoint 72 hour. It counts as functional, Erythrocyte.
By % Inhibition is commonly meant the drop in the measured response relative to a control, in per cent. As for `CCCNC(=O)C1CCN(c2nc3ncn(CC(=O)NCc4ccccc4)c(=O)c3s2)CC1`, the “% Inhibition” value is -13% and the Z score is recorded as 2.02.

Consider `c1ccc(Cn2c3c(c4ccccc42)CNCCC3)nc1`, for which the “% Inhibition” value is on record as -10% and the Z score was found to be 1.27.

With `CCCNC(=O)C1C(c2cccc(NC(=O)c3ccc(OC)cc3)c2)OC(=O)N1Cc1ccc(C)cc1` (stereo not given), the “% Inhibition” value is listed as -14% and the Z score worked out at 1.33.

As for `Cc1n[nH]c2c1CN(Cc1nncn1C(C)C)CC2`, the “% Inhibition” value was -5% and the Z score came to 0.99.

With `COC(=O)c1cn(Cc2cccnc2)cc2c(O)nnc1-2`, the “% Inhibition” value worked out at 0% and the Z score was -0.02.

For `Cc1nc2cc(C(=O)O)ccc2n1Cc1ccsc1`, the “% Inhibition” value is on record as -20% and the Z score came to 2.66.

Regarding `O=S(=O)(NC[C@@H]1CCCN2CCCC[C@H]12)c1ccc2[nH]cnc2c1`, the “% Inhibition” value is recorded as -13% and the Z score was 1.7.

As to `COc1ccc(Cl)cc1NC(=O)Cn1nc(-c2ccc3c(c2)OCCO3)ccc1=O`, the “% Inhibition” value is reported as -5% and the Z score stood at 0.42.

On to `CC(C)(C(=O)Nc1cn[nH]c1)C(F)F`, for which the “% Inhibition” value is -6% and the Z score is 0.7.

As for `C[C@H]1CN(Cc2nc(C3CCCCC3)cs2)S(=O)(=O)C1`, the “% Inhibition” value is listed as -8% and the Z score came out at 1.28.

As for `CCc1nc2c(s1)[C@@H](N(C)CCC(=O)Nc1cc(C)on1)CCC2`, the “% Inhibition” value is reported as -2% and the Z score is reported as 0.33.

Consider `CC(C)c1cc(C(=O)N2CCC[C@@](CO)(CCCc3ccccc3)C2)on1`, for which the “% Inhibition” value came to 4% and the Z score is given as -0.59.

On to `O=C(COc1ccccc1F)N(CC(F)(F)F)C1CCOCC1`, for which the “% Inhibition” value is recorded as -9% and the Z score was found to be 1.05.

In the case of `CN(C)CCN(Cc1ccco1)C(=O)c1c2c(nc3ccccc13)C(=O)N(C1CCCCC1)C2`, the “% Inhibition” value was -8% and the Z score was determined as 0.89.

Turning to `CC(C)(C)CC(=O)N1CCc2ncncc2C1`, the “% Inhibition” value is 0% and the Z score was 0.07.

In the case of `O=C(NC1(CCO)CCOCC1)c1nc(C2CC2)n2ccccc12`, the “% Inhibition” value came out at 5% and the Z score was -0.68.

Regarding `Cc1nn(C)c(Cl)c1C(=O)NCCCN(C)c1ccccc1`, the “% Inhibition” value is reported as -6% and the Z score was found to be 1.21.

Take `CC(=O)N(CC(C)(C)CC=C(C)C)C1CCCCC1`: the “% Inhibition” value turned out to be 8% and the Z score is -0.76.

Turning to `Cc1cccc(C2(c3cccc(C)c3)CC2C(=O)NCC2CCCO2)c1` (stereo not given), the “% Inhibition” value is 0% and the Z score turned out to be 0.03.

Take `CCN(CC1COc2ccccc2O1)C(=O)NC(C)c1ccccn1` (stereo not given): the “% Inhibition” value is -11% and the Z score is listed as 1.77.

For the compound `Cc1cnc(C(=O)N2CCC[C@H]2c2nc(C3CCOCC3)no2)cn1`, the “% Inhibition” value is on record as 34% and the Z score was -4.99.

With `CN(C)c1ncccc1NC(=O)c1ccc(C#N)cc1`, the “% Inhibition” value is -1% and the Z score came to 0.24.

For the compound `O=C(c1ccc(Cl)cc1OC1CCN(Cc2ccco2)CC1)N1CCCCC1`, the “% Inhibition” value is reported as -2% and the Z score stood at 0.31.

Take `Cc1ccc(N(CC(=O)N2CCCCC2)C(=O)c2ccc(C)nc2C)cc1`: the “% Inhibition” value is reported as -2% and the Z score is listed as 0.31.

Regarding `Cc1csc(C(=O)N2CC(n3cc(C4CC4)nn3)C2)c1`, the “% Inhibition” value is reported as -17% and the Z score is listed as 1.94.

For the compound `N#Cc1cnc(N2CCC(n3cc(Br)cn3)CC2)cn1`, the “% Inhibition” value is given as -4% and the Z score came out at 0.66.

On to `Cn1ccnc1C1(O)CCN(c2ccc(C(F)(F)F)cn2)CC1`, for which the “% Inhibition” value is on record as -4% and the Z score turned out to be 0.42.

Regarding `CC(C)CN1CCCn2nc(CNC(=O)[C@H](C)Oc3ccccc3)cc2C1`, the “% Inhibition” value is given as -11% and the Z score stood at 2.27.

On to `N[C@H]1CC[C@@H](n2ccnc2-c2ccc3cccc(Cl)c3n2)CC1`, for which the “% Inhibition” value is listed as 6% and the Z score was -0.85.

`Nc1c2c(-c3ccccc3Cl)nc(NC3CC3)nc2nn1-c1ccccc1`: the “% Inhibition” value was -17% and the Z score is on record as 1.62.

As to `OC(COCc1ccccc1)CN1CCCC1c1nnc2ccccn12` (stereo not given), the “% Inhibition” value is listed as -6% and the Z score is on record as 0.55.

As to `Cc1cccc(CC2(NC(=O)CC3CCN(C)CC3)CC2)c1`, the “% Inhibition” value was -1% and the Z score turned out to be 0.14.

`Cc1ccc(CCC(=O)N2CC[C@H](O)C23CCCC3)cc1`: the “% Inhibition” value is given as -5% and the Z score is 0.77.

`O=C(Cn1c(-c2ccco2)nn(-c2ccc(Cl)cc2)c1=O)NC1CC1`: the “% Inhibition” value is recorded as -7% and the Z score is recorded as 0.61.

Take `CC(CS(C)(=O)=O)N(C)C(=O)NC(Cc1ccccc1)C1CC1` (stereo not given): the “% Inhibition” value is reported as 11% and the Z score is listed as -2.04.

`Cc1cc(Cl)ccc1S(=O)(=O)Nc1cc(N2CCNC2=O)ccc1F`: the “% Inhibition” value is 4% and the Z score is -0.34.

`O=C(CS(=O)(=O)CC1CCCCC1)Nc1ccc2c(c1)OCCCO2`: the “% Inhibition” value worked out at 7% and the Z score was -0.88.

`COCC(=O)N1CCC(Oc2ccc(C)nn2)CC1`: the “% Inhibition” value was -16% and the Z score came to 3.06.

On to `Clc1cc2c(c(CN3CCC(Cc4ccccc4)CC3)c1)OCOC2`, for which the “% Inhibition” value is -1% and the Z score is 0.13.

Turning to `O=C(C[C@H]1CCOC1)N1CCC12CCC2`, the “% Inhibition” value came out at 8% and the Z score is -0.88.

Regarding `CN(c1ncccc1C#N)C1CN(c2ccc3nncn3n2)C1`, the “% Inhibition” value is on record as -10% and the Z score is reported as 1.44.

As for `O=C(c1ccccc1F)N1CCc2oncc2C1`, the “% Inhibition” value is reported as -3% and the Z score was determined as 0.42.

On to `Cc1ccc(NS(=O)(=O)c2cc(C(=O)NC3CCCCCC3)ccc2Cl)cc1C`, for which the “% Inhibition” value is on record as -13% and the Z score is listed as 1.44.

Regarding `Cc1nc[nH]c1-c1nnc(N2CCN(c3ccccc3)CC2)n1C`, the “% Inhibition” value is on record as -4% and the Z score is 0.66.

On to `CCc1nc(CC)n(CC(=O)Nc2ccc(C(C)=O)cc2)n1`, for which the “% Inhibition” value is reported as 33% and the Z score is given as -3.75.

On to `Cc1csc(NC(=O)[C@@H]2CCC[C@@H](NCc3cccnc3)CN(C)C(=O)C2)n1`, for which the “% Inhibition” value is given as -2% and the Z score turned out to be 0.23.

Consider `Cn1ccnc1C1CC(NC(=O)c2cc3c(s2)CCC3)CCO1` (stereo not given), for which the “% Inhibition” value stood at 30% and the Z score is reported as -4.4.

Regarding `Cc1cc(F)ccc1C(=O)NCc1cc2n(n1)CCN(S(C)(=O)=O)C2`, the “% Inhibition” value is recorded as -3% and the Z score is recorded as 0.65.

Regarding `Cc1ccc(CN2CCC[C@H]2C(=O)O)c2cccnc12`, the “% Inhibition” value is reported as -13% and the Z score is 1.64.

On to `CCCCN1CCN(C(=O)c2cccc(-c3nccs3)c2)CC1=O`, for which the “% Inhibition” value is -6% and the Z score came out at 0.72.

For `CN(C)C(=O)N(CCN1CCCCC1)[C@H]1CCN(C(=O)c2ccc(Br)o2)C1`, the “% Inhibition” value was -3% and the Z score was found to be 0.61.

Turning to `Cn1cc(C2CCN(C(=O)c3cnn4cccnc34)CC2)cn1`, the “% Inhibition” value was -4% and the Z score came to 0.6.

For `Cc1ccc(NC(=O)[C@H](C)ON=C(N)c2ccc(OCc3ccccc3)cc2)c(F)c1`, the “% Inhibition” value is reported as 0% and the Z score is listed as 0.03.

Take `O=C1NCCN1CCn1ccc(NC(=O)N2CCC(F)(F)C2)n1`: the “% Inhibition” value is listed as 3% and the Z score is listed as -0.63.

With `COc1ccccc1C(=O)Nc1ccc(C2OC(=O)N(Cc3ccc(F)cc3)C2C(=O)Nc2ccc(F)cc2)cc1` (stereo not given), the “% Inhibition” value is -10% and the Z score is on record as 1.44.

The values are drawn from ChEMBL document CHEMBL4888484, “Replenishing the malaria drug discovery pipeline: Screening and hit evaluation of the MMV Hit Generation Library 1 (HGL1) against asexual blood stage Plasmodium falciparum ,using a nano luciferase reporter read-out” (2022).
